# From PubChem BioAssay AID624202 (National Center for Advancing Translational Sciences (NCATS), 2012)
# Out of some 380,000 compounds screened, about 4,000 (1.1%) were called active. Inconclusive results (about 3%) are left out. The call rests on the fitted dose curve; in most records, active means well fitted activation curve with a large enough effect; inconclusive means small, poorly fitted or top-dose-only effect; inactive means no such curve, though single readings can be large or run the other way. Some structures have more than one record in an assay (separate samples or runs), and their calls can disagree. Certain results were filed several times, with different values. They are shown here; other results are not. There may be further records. Values that stand side by side are repeated measurements across runs, samples, wells, individuals or studies. Records carry a tag for their origin. Letters count within one entry.
# Experiment: qHTS Assay to Identify Small Molecule Activators of BRCA1 Expression; further: nearly all actives have a fitted effect of over 80% in size
# Conditions: MCF7-BRCA1-FFLuc reporter, luminescence, 48 h; series mostly up to 46.1 µM
# Description: Functionally, BRCA1 has been implicated in a wide array of cellular activities, including DNA damage repair, cell-cycle checkpoint control, growth inhibition, apoptosis, transcriptional regulation, chromatin remodeling, protein ubiquitylation, and mammary stem cell self-renewal and differentiation. Reduction in BRCA1 levels is associated with an increase in tumor growth and resistance to anti-estrogenic agents, such as tamoxifen, while an increase in BRCA1 expression leads to cell growth arrest and apoptosis. […] The frequent loss of BRCA1 expression in invasive breast cancers in the absence of somatic mutation has been attributed to numerous mechanisms, including hypermethylation of the BRCA1 promoter, exaggerated ubiquitylation of BRCA1 protein, and improper intracellular localization. […]
# 5microl of MCF7-BRCA1-FFLuc cell suspension (400 cells/microl in phenol-red free MEM) are dispensed into Greiner white solid bottom 1536-well assay plates, yielding a final well density of 2000 cells/well. […] The NCGC in-house luciferase substrate reagent, Buglite, is then added (2.5microl) and plates incubated for 15 minutes, before being transferred to a ViewLux high-throughput CCD imager (PerkinElmer) wherein single end-point measurements of luminescence are acquired using a clear filter. […]
# Potency means the concentration at half of the fitted maximal effect.
row,Compound,Potency
1,CCc1nn(CCCC(=O)NC(C)c2ccccc2)c(=O)c2cc3occc3n12 (stereo unspecified),active: 3.16 µM [sample A] and inactive [sample B]
